The other results are listed elsewhere or left out. Sequences were assembled here from the parent chain. Values near 0.05 are background.
B1: TEV protease; numbered along this chain (parent)
chain: MGESLFKGPRDYNPISSSICHLTNESDGHTTSLYGIGFGPFIITNKHLFRRNNGTLVVQSLHGVFKVKDTTTLQQHLVDGRDMIIIRMPKDFPPFPQKLKFREPQREERICLVTTNFQTKSMSSMVSDTSCTFPSGDGIFWKHWIQTKDGQCGSPLVSTRDGFIVGIHSASNFTNTNNYFTSVPKNFMELLTNQEAQQWVSGWRLNADSVLWGGHKVFMVKPEEPFQPVKEATQL

Variants of: B1
Assay: raw area under fraction-flipped curve 0-4 h after induction (AUC4h, not background-subtracted), DNA-recorder readout of cleavage of the substrate (dimensionless); higher = more cleavage of the substrate by the protease variant
Settings: temperature: 34 °C; time window: 0-4 h after rhamnose induction
Protocol: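 In vivo DNA recorder in E. coli TOP10(DE3) ΔrhaA at 34 °C. Each TEVp single-site mutant (parent TEVp 0) is paired with a single-site variant of the 7-mer TEVs (canonical ENLYFQ|S). The substrate sits between flexible linkers in a Bxb1-sfGFP-TEVs-SsrA fusion, so cleavage stabilises Bxb1 and speeds flipping of a recombination array, read by NGS. The value is the raw area under the fraction-flipped curve over 0-4 h after rhamnose induction (AUC4h), with ≥20 reads per time point. It is not background-subtracted; inactive controls average about 0.047.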
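Further: Bxb1 expression induced with 0.2% (w/v) L-rhamnose at OD600 near 0.5, cultures sampled hourly, flipped fraction per protease–substrate barcode pair counted by paired-end Illumina sequencing.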

| Variant | area with substrate ENCYFQS | area with substrate ENDYFQS | area with substrate ENEYFQS | area with substrate ENKYFQS | area with substrate ENNYFQS | area with substrate ENQYFQS | area with substrate ENRYFQS | area with substrate ENSYFQS | area with substrate ENTYFQS | area with substrate ENWYFQS | area with substrate ENFYFQS | area with substrate ENGYFQS | area with substrate ENIYFQS | area with substrate ENVYFQS | area with substrate ENHYFQS | area with substrate ENYYFQS | area with substrate ENMYFQS | area with substrate ENPYFQS |
| --- | --- | --- | --- | --- | --- | --- | --- | --- | --- | --- | --- | --- | --- | --- | --- | --- | --- | --- |
| F218N | 0.0544 | 0.0687 | 0.0615 | 0.0607 | 0.0548 | 0.0686 | 0.0575 | 0.0514 | 0.0547 | 0.0578 |  |  |  |  |  |  |  |  |
| M219T | 0.0606 | 0.053 | 0.0574 |  |  | 0.071 |  |  |  |  | 0.0627 | 0.0439 | 0.0774 | 0.0701 |  |  |  |  |
| F226Q | 0.0828 | 0.0532 |  |  | 0.0741 | 0.0675 |  |  | 0.0541 | 0.0396 | 0.0795 | 0.0619 |  | 0.0711 | 0.0527 | 0.0639 |  |  |
| K230S | 0.0658 | 0.0539 |  | 0.0678 | 0.0624 | 0.0636 | 0.0566 |  | 0.0738 | 0.0512 | 0.0512 |  | 0.109 | 0.0507 | 0.0425 |  | 0.0761 |  |
| E231N | 0.0997 | 0.0611 | 0.0809 |  | 0.0303 | 0.0633 | 0.0646 | 0.0572 | 0.0431 | 0.0642 | 0.0691 |  |  | 0.104 | 0.0671 |  |  |  |
| L235E | 0.064 |  |  |  |  | 0.0433 |  |  |  |  | 0.0631 |  |  |  | 0.0664 |  | 0.0721 |  |
| E3C |  | 0.0511 | 0.0547 |  | 0.0498 | 0.0511 |  |  | 0.0731 |  |  |  |  | 0.0718 |  |  |  | 0.0639 |
| E3R |  | 0.0643 |  | 0.0595 | 0.0696 | 0.0701 |  | 0.0595 | 0.0561 |  |  | 0.0542 | 0.0992 |  | 0.064 |  |  |  |
| I15M |  | 0.0451 | 0.0576 |  | 0.0439 | 0.058 | 0.0611 | 0.056 | 0.0594 | 0.034 | 0.0606 | 0.0692 |  | 0.0848 |  | 0.0655 |  |  |
| S26E |  | 0.0581 | 0.0593 |  | 0.0822 | 0.0496 | 0.0099 | 0.0551 | 0.0621 | 0.0372 | 0.0656 | 0.0695 |  | 0.0854 |  | 0.0779 | 0.057 |  |
| Q59K |  | 0.0659 | 0.081 |  | 0.0501 |  |  | 0.0563 | 0.0568 |  | 0.0775 | 0.057 |  | 0.0781 | 0.0478 | 0.0631 | 0.0697 |  |
| G63R |  | 0.0541 | 0.0588 |  | 0.0659 | 0.0558 | 0.0503 | 0.0583 |  |  | 0.088 |  |  | 0.0814 | 0.0205 |  |  | 0.065 |
| F95A |  | 0.0548 | 0.0552 | 0.076 |  | 0.0813 | 0.0601 | 0.0696 | 0.0435 | 0.0542 | 0.0521 | 0.0455 |  | 0.0585 | 0.0537 |  |  | 0.0562 |
| K100Y |  | 0.0354 | 0.059 | 0.068 | 0.0534 | 0.0442 | 0.0615 | 0.058 | 0.0663 | 0.0258 | 0.0595 | 0.0651 |  | 0.0825 |  | 0.0382 | 0.0845 | 0.0664 |
| R106E |  | 0.0554 | 0.0634 |  | 0.0556 | 0.0707 | 0.0509 | 0.0451 | 0.0385 |  | 0.0644 | 0.0927 |  | 0.106 | 0.0512 | 0.0718 | 0.0895 | 0.0568 |
| V126I |  | 0.0583 | 0.0602 | 0.0576 |  |  |  | 0.0773 |  | 0.0488 | 0.0294 |  | 0.0927 |  | 0.0882 | 0.0441 | 0.0666 | 0.0628 |
| D137F |  | 0.0739 | 0.06 |  | 0.0687 | 0.0595 | 0.0558 | 0.0938 | 0.0772 |  |  | 0.0537 | 0.0782 |  |  | 0.0549 | 0.102 |  |
| K142W |  | 0.0725 | 0.0645 | 0.0374 | 0.0536 | 0.0644 | 0.0593 | 0.0573 | 0.0635 |  | 0.066 | 0.0586 | 0.0674 | 0.0465 | 0.0404 |  | 0.0572 |  |
| L156R |  | 0.0533 | 0.0436 | 0.0661 | 0.0501 | 0.0345 |  | 0.0288 | 0.0504 |  | 0.05 | 0.0615 |  |  | 0.0551 |  |  | 0.0438 |
| T174K |  | 0.063 | 0.0698 |  | 0.0672 |  |  | 0.0446 |  | 0.0643 | 0.0663 |  |  |  |  |  |  | 0.0455 |
| T174S |  | 0.0665 |  |  |  |  |  |  |  | 0.0413 |  |  |  |  |  |  |  |  |
| V183D |  | 0.0578 | 0.0543 |  | 0.0561 | 0.0377 | 0.0483 | 0.0555 | 0.0386 | 0.0586 |  | 0.0625 | 0.0608 |  | 0.0636 |  | 0.0428 |  |
| V183W |  | 0.0282 |  | 0.0458 | 0.054 |  | 0.0679 | 0.062 | 0.0513 | 0.0573 | 0.0541 | 0.0655 | 0.0804 |  | 0.0516 | 0.0771 | 0.0507 |  |
| V229K |  | 0.0592 | 0.0577 | 0.0768 |  | 0.0606 | 0.064 | 0.0524 | 0.0546 | 0.0531 | 0.0763 |  |  | 0.0741 |  |  |  |  |
| Q234S |  | 0.0582 | 0.0637 | 0.0718 | 0.0588 | 0.0632 |  | 0.0583 | 0.0536 |  | 0.0434 | 0.054 |  | 0.0748 | 0.0349 |  |  | 0.0562 |
| Q234T |  | 0.0581 | 0.0592 | 0.0633 |  | 0.0559 | 0.0545 | 0.0598 | 0.0711 |  | 0.0642 | 0.0579 | 0.11 | 0.0696 | 0.0684 |  |  |  |
| P94A |  |  | 0.0595 |  |  | 0.049 |  |  |  |  |  | 0.0681 |  |  | 0.0501 | 0.0601 |  |  |

— the supplement of paper PMC12217912
